In all, about 33,000 sequences were measured (“E-score (-0.5 to 0.5)”: median about -0.016, highest 2% from about 0.32 on). Some of the results follow.
target: T1, Stp1 (UniProt B3LFK1); test: PBM E-score (8-mer binding enrichment) (E-score (-0.5 to 0.5)); higher = stronger / more preferred TF binding; most listed sequences are background and not binding sites; conditions: protein concentration: 200 nM; construct: GST-full length
T1 sequence: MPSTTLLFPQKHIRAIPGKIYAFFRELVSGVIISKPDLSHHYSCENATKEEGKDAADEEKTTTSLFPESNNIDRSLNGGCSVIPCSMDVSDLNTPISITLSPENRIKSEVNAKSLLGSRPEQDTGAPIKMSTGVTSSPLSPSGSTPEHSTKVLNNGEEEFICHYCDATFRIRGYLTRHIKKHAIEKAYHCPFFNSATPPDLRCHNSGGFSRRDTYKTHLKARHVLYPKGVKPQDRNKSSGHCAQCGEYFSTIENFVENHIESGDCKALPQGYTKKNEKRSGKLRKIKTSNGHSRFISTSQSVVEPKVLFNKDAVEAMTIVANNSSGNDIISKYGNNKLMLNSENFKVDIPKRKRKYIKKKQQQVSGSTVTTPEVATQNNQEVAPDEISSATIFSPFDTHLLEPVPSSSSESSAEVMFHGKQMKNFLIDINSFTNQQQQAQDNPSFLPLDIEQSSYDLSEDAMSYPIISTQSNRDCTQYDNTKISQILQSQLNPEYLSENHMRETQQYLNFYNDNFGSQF
Description: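 Universal 'all 10-mer' protein binding microarrays (Agilent AMADID 015681) probed with GST-tagged S. cerevisiae TFs (full-length or DBD) made by in vitro transcription/translation (PURExpress), about 100-200 nM. Bound TF was detected with fluorescent anti-GST. Each ungapped 8-mer (which stands for itself and its reverse complement) is scored by the PBM enrichment score (E-score), a modified Wilcoxon-Mann-Whitney statistic from -0.5 to +0.5, computed with the Universal PBM Analysis Suite. Scale: above 0.35 generally sequence-specific binding.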

| Sequence | PBM E-score |
| --- | --- |
| GCGCCACA | 0.334 |
| CCAAAATC | 0.134 |
| CCGATTGA | -0.0804 |
| CCATGGCG | 0.236 |
| AACGTGAT | -0.0428 |
| CCACTGGA | -0.241 |
| ATCCTGAG | 0.0111 |
| CTTAAAGC | -0.0457 |
| CCTATCCC | -0.0936 |
| AATTACAG | 0.0891 |
| ATGTGCCA | 0.137 |
| AGTCCTAT | -0.171 |
| CACACTGC | 0.0471 |
| CAGTTCCA | -0.117 |
| CGAAGCAA | -0.0777 |
| ACCCAGTC | -0.33 |
| CCTCAACA | 0.168 |
| TCCCAACA | -0.0125 |
| CGCTCAAG | -0.0541 |
| AACCGTAG | -0.0182 |
| ATTTGCTA | 0.125 |
| AAAATTTT | 0.152 |

| Sequence | PBM E-score |
| --- | --- |
| GTAGAAAC | 0.0908 |
| AAGGTGAA | -0.00311 |
| AGTCAAGA | -0.0455 |
| AAAATCAC | 0.0634 |
| CCCGCGAG | -0.117 |
| GGACTTAA | -0.216 |
| CGAACCAA | -0.0133 |
| AAAGTTCG | 0.192 |
| AGCCACTC | 0.0834 |
| GGCATAGA | 0.134 |
| GATGTTAC | 0.0244 |
| CAAGGCCG | 0.103 |
| AAGTAGTC | 0.00928 |
| TCAGAGGA | -0.284 |
| CGCTGCAG | -0.109 |
| ATCCCAGC | -0.171 |
| CTTACCTC | -0.245 |
| ACGCTGCG | -0.0618 |
| CGAAAAAA | 0.147 |
| CATGTTCG | -0.0735 |
| TAACGTGA | 0.06 |
| CCGAAAGC | -0.274 |

| Sequence | PBM E-score |
| --- | --- |
| GGGATGGA | -0.114 |
| GCAGACTA | 0.0053 |
| AAGTGGCT | 0.132 |
| CCGTTTCC | 0.121 |
| CGTCCCTC | -0.131 |
| AATGGTCG | -0.0272 |
| AAGGGGGT | -0.301 |
| CAGTCCTC | -0.0753 |
| ATCCCGTC | -0.206 |
| ACGGTACA | 0.123 |
| AACGATCC | -0.211 |
| AGTAAATG | 0.0843 |
| ACTTTGAG | 0.0437 |
| ATTGCATG | 0.145 |
| GCTTTGTA | 0.135 |
| CCCTGCCC | -0.215 |
| CAAGCCGC | 0.299 |
| CACTGATG | -0.0393 |
| GACGGCCA | -0.0395 |
| AAACGTGT | -0.0871 |
| ATAAAGAG | -0.0649 |
| CATGACGA | -0.0371 |

| Sequence | PBM E-score |
| --- | --- |
| CAAAGGAG | -0.0545 |
| TCATGAGA | 0.0946 |
| CCAATACA | -0.116 |
| GATTGTAC | -0.0306 |
| GAAGTTAC | 0.0897 |
| AGTAGCAG | -0.0197 |
| ATCGCGAG | 0.0313 |
| CAAGCCCG | -0.0901 |
| ACTTATAA | 0.148 |
| TCTGAGAA | -0.0138 |
| ATAAGTCA | 0.0453 |
| AGATGGCG | 0.165 |
| GTCTAGGA | -0.156 |
| ACCTGTGA | -0.159 |
| AGGTGTGG | -0.103 |
| GTATTTTA | 0.142 |
| GGGAGCAC | -0.246 |
| CACCATAA | 0.147 |
| ATCATTCG | 0.119 |
| TACCAGCA | -0.0453 |
| GATATAGC | -0.0525 |
| AAGTCCGA | -0.222 |

| Sequence | PBM E-score |
| --- | --- |
| AGATACGG | 0.284 |
| TAAAGGGA | -0.164 |
| AAGCTGGA | -0.0865 |
| CACCATCA | -0.0942 |
| AACTGGTG | -0.127 |
| GTTTCTCA | -0.115 |
| TAGAGGCA | -0.0206 |
| CAATCGAA | 0.163 |
| CAAGCCCA | -0.0787 |
| CCAGGAGC | -0.0555 |
| GACACTCC | 0.0152 |
| ACGACCGA | -0.223 |
| GTATTGAC | -0.0318 |
| GGGGAAAC | -0.177 |
| GGGATGTA | -0.109 |
| AAGAGACC | -0.0796 |
| ATCCAATG | -0.0429 |
| CTCATGGA | -0.173 |
| CTGCGATA | 0.0226 |
| CCTTTTAA | 0.139 |
| AAGAGCCA | 0.103 |

Reference: the supplement of paper PMC3334620
